The whole screen tested about 410,000 compounds, of which about 5,000 (1.2%) were called active. Inconclusive results, whose numbers are uncertain, are shown with a selection of clear calls. Calls follow the shape of the dose curve; as a rule, active = well fitted inhibition curve with a large enough effect; inconclusive = small, poorly fitted or top-dose-only effect; inactive = no such curve, though single readings can be large or run the other way. Where the call is inconclusive, the potency comes from a doubtful curve fit.
Assay: qHTS for Inhibitors of TGF-b; also: nearly all actives have a fitted effect of over 65% in size
Conditions: HepG2 CAGA-GFP TGF-b/SMAD3 reporter, GFP fluorescence, 18 h, TGF-beta stimulated, 500 pg/mL final; series mostly up to 46.1 µM
Outline: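 TGF-beta reporter screen: HEPG2 CAGA-GFP, 1% FBS, 500 pg/mL TGF-beta final, 18 h; per-cell GFP summed per well; curves fitted and categorized by class.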
In the case of `COc1cc(-c2cc(NC=O)c3ncc(-c4ccccc4)n3c2)cc(OC)c1OC`, the Potency is reported as inconclusive: 35.5 µM [inhibitor, single point]. In the case of `CCCCc1cc(C(=O)Cc2ccccn2)c(O)cc1O`, the Potency is reported as inconclusive: 15.8 µM [inhibitor, single point]. For `COc1cccc(CC2(CO)CCCN(Cc3ccc(-c4ccco4)cc3)C2)c1` (centres undefined), the Potency was “inactive”. With `O=C(CSc1ncc(-c2ccccc2)[nH]1)Nc1cccc(Br)c1` the Potency was inconclusive: 20 µM [inhibitor, partial curve, poor fit]. With `Cc1ccc(-c2nnn3c2nc(NC2CCC(C)CC2)c2ccccc23)cc1` (centres undefined) the Potency was “inactive”. In the case of `Cc1noc(C)c1COC(=O)C1CCN(C(=O)c2ccc(Cl)cc2)CC1`, the Potency is reported as inconclusive: 35.5 µM [inhibitor, single point]. For `NC(=O)CSc1oc(-c2ccc(F)cc2)nc1S(=O)(=O)c1ccccc1`, the Potency was “inactive”. For `CC1CCc2nc(NC(=O)Cc3cccs3)sc2C1` (centres undefined), the Potency was “inactive”. For `CCOc1cc(C2C(C#N)=C(N)OC(C)=C2C(C)=O)cc(Br)c1O` (centres undefined), the Potency was inconclusive: 25.1 µM [inhibitor, single point]. For `CC1=C(C(=O)N(C(C)C)C(C)C)CC(CC(=O)NCCCCc2ccccc2)C(=O)N1Cc1ccc(C(C)(C)C)cc1` (centres undefined), the Potency was active: 11.2 µM. In the case of `C=CCNC(=O)/C(C#N)=C/c1c(N2CCN(c3ccccc3)CC2)nc2c(C)cccn2c1=O`, the Potency is reported as “inactive”. With `O=C(CSc1ccc(Cl)cc1Cl)N1CCC(c2nc3ccccc3s2)CC1` the Potency was inconclusive: 35.5 µM [inhibitor, partial curve, poor fit]. With `O=C(COc1ccc2ccc(=O)oc2c1)NC1CCN(Cc2ccccc2)CC1` the Potency was “inactive”. For `CC1=CC2=C(OC1N(C)C)c1cccc3cccc(c13)C2=O` (centres undefined), the Potency was inconclusive: 14.1 µM [inhibitor, single point]. With `Cc1cc(Nc2nc3ccccc3nc2Cl)n(-c2ccc([N+](=O)[O-])cc2)n1` the Potency was inconclusive: 35.5 µM [inhibitor, partial curve, poor fit]. With `Cc1noc2ncnc(Oc3ccccc3)c12` the Potency was “inactive”. For `CCC(=O)N1CCc2cc(S(=O)(=O)NCc3ccc(C)cc3)ccc21`, the Potency was inconclusive: 35.5 µM [inhibitor, single point]. With `Clc1ccc(Nc2c3c(nc4ncnn24)CCC3)cc1` the Potency was inconclusive: 11.2 µM [inhibitor, single point]. In the case of `Cc1cc(-c2ccccc2)nnc1NCCN1CCOCC1`, the Potency is reported as “inactive”. With `Fc1ccc(-c2nc3ccc(Cl)cn3c2Cc2ccsc2)cc1` the Potency was inconclusive: 35.5 µM [inhibitor, single point]. In the case of `C=CCC[C@@H](Cc1ccc(F)cc1)C(=O)OC[C@@H](Cc1ccccc1)NC(=O)[C@H](CC=C)CC(=O)NCCO`, the Potency is reported as inconclusive: 35.5 µM [inhibitor, single point]. In the case of `COc1ccc(S(=O)(=O)N2CCC(C(=O)NC3CCCCC3)CC2)cc1C`, the Potency is reported as inconclusive: 35.5 µM [inhibitor, single point]. In the case of `CCOC(=O)N1CCN(Cc2nc3cc(NC(=O)c4ccccc4Cl)ccc3n2C(C)C)CC1`, the Potency is reported as inconclusive: 7.08 µM [inhibitor, partial curve, poor fit]. For `O=C(O)c1ccc(N2C(=O)CC(SC(=NCc3ccc4c(c3)OCO4)Nc3ccc(F)cc3)C2=O)cc1` (centres undefined), the Potency was “inactive”. With `COc1ccc(Nc2cc(Cl)nc(N)n2)cc1OC` the Potency was “inactive”. For `C=C(C)COc1ccc(-c2[nH]ncc2Oc2ccccc2OCC)c(O)c1`, the Potency was inconclusive: 25.1 µM [inhibitor, single point]. In the case of `COc1ccc(-c2nnc(NC(=O)c3ccc(S(=O)(=O)N(C)CC4CCCO4)cc3)o2)c(OC)c1` (centres undefined), the Potency is reported as “inactive”. In the case of `CC(C)Nc1nc(Cl)nc(NN(C)c2nc(N(C)C)nc(N(C)C)n2)n1`, the Potency is reported as inconclusive: 6.31 µM [inhibitor, single point]. For `CC(=O)N1CCc2c(sc3c2c(=O)n(-c2ccccc2Cl)c(=O)n3Cc2cccc(C)c2)C1`, the Potency was inconclusive: 35.5 µM [inhibitor, single point]. In the case of `CC(NC(=O)CSC1=NCCS1)c1ccccc1` (centres undefined), the Potency is reported as inconclusive: 5.62 µM [inhibitor, single point]. For `C/C(=N\N=C1\NC(=O)C(CC(=O)Nc2ccc(C)c(Cl)c2)S1)C(C)(C)C` (centres undefined), the Potency was inconclusive: 35.5 µM [inhibitor, single point]. For `COc1ccccc1NC(=O)CSc1cn(CC(=O)N2CCCC2)c2ccccc12`, the Potency was “inactive”. With `CCCc1cc(=O)oc2c(C)c(OCC(=O)NCCCN3CCOCC3)ccc12` the Potency was “inactive”. With `CCN(CC)c1ccc(/C=N/Nc2nc3ccccc3[nH]2)cc1` the Potency was “inactive”. In the case of `COc1ccc(CNC(=O)c2cc3c(-c4ccccc4F)nn(C)c3s2)cc1`, the Potency is reported as inconclusive: 25.1 µM [inhibitor, single point]. In the case of `C[C@@H]1NC(=O)c2cc([N+](=O)[O-])cc(F)c2NCCC[C@@H](C(N)=O)NC(=O)[C@H](CC(N)=O)NC1=O`, the Potency is reported as inconclusive: 1 µM [inhibitor, partial curve, poor fit]. In the case of `O=C(N/N=C/c1ccncc1)NC12CC3CC(CC(C3)C1)C2`, the Potency is reported as inconclusive: 35.5 µM [inhibitor, single point]. For `CC/C(=C(/CC)c1ccc(O)cc1)c1ccc(O)cc1`, the Potency was inconclusive: 15.8 µM [inhibitor, single point]. For `Cc1ccc(NS(=O)(=O)c2cc(NC(=O)c3ccc4c(c3)NC(=O)CS4)ccc2C)c(C)c1`, the Potency was inconclusive: 11.2 µM [inhibitor, partial curve, poor fit]. With `Cc1nn(-c2ccccc2)c(C)c1/C=C1\C(=O)N(C)C(=S)N1C` the Potency was “inactive”. With `CNC(C)C(=O)NC(C(=O)NC(C)C(=O)Nc1cccc2ccccc12)C(C)C` (centres undefined) the Potency was inconclusive: 12.6 µM [inhibitor, single point]. In the case of `Cc1cc(C(=O)NCc2cccnc2)n(-c2ccccc2)n1`, the Potency is reported as inconclusive: 14.1 µM [inhibitor, single point]. In the case of `O=C(Nc1ccc(Br)cc1F)C(NS(=O)(=O)c1cccc2nsnc12)c1ccccc1` (centres undefined), the Potency is reported as “inactive”. For `COc1cc2c3c(cccc3c1)C(=O)N(CCN1CCCC1)C2=O`, the Potency was active: 14.1 µM. In the case of `O=C(O)CCCNS(=O)(=O)c1ccc(F)cc1`, the Potency is reported as inconclusive: 10 µM [inhibitor, single point]. With `CNC(=O)CC1C(=O)N(c2ccc(OC)cc2)C(=S)N1NC(=O)c1cccc(F)c1` (centres undefined) the Potency was “inactive”. For `CCn1nc(NS(=O)(=O)c2ccc([N+](=O)[O-])cc2)c2cc3cccc(C)c3nc21`, the Potency was inconclusive: 25.1 µM [inhibitor, single point]. With `COc1cccc(NC(=O)c2ncc(Cl)c(Cl)c2Cl)c1` the Potency was “inactive”. With `CCOC(=O)C1CCCN(C(=O)c2cc3c(-c4cccc(OC)c4)nn(C)c3s2)C1` (centres undefined) the Potency was “inactive”. With `COCCNC(=O)/C(C#N)=C/c1c(N2CCN(c3cccc(Cl)c3)CC2)nc2c(C)cccn2c1=O` the Potency was inconclusive: 11.2 µM [inhibitor, single point]. For `COc1ccc(Nc2nc(-c3sc(C)nc3C)cs2)cc1`, the Potency was inconclusive: 8.91 µM [inhibitor, partial curve, poor fit]. With `O=C(Nc1ccc(Cl)c(Cl)c1)C1=Cc2ccccc2OC1` the Potency was inconclusive: 35.5 µM [inhibitor, single point]. With `O=C(C1CCCN1C(=O)c1cccs1)N1CCN(Cc2ccc3c(c2)OCO3)CC1` (centres undefined) the Potency was inconclusive: 12.6 µM [inhibitor, single point]. With `CC(=O)N1c2ccc(S(=O)(=O)N3CCC(C(=O)Nc4cccc(C(F)(F)F)c4)CC3)cc2CC1C` (centres undefined) the Potency was active: 11.2 µM. For `CCc1ccc(NC(=S)NC2CC3CCCC(C2)N3Cc2ccccc2)cc1` (centres undefined), the Potency was inconclusive: 17.8 µM [inhibitor, single point]. For `O=C(CSc1nc(=O)n(CCCN2CCOCC2)c2c1CCCC2)Nc1cccc(Cl)c1`, the Potency was inconclusive: 0.794 µM [inhibitor, full curve, poor fit]. For `O=C(O)CSc1nc2c(c(C(F)(F)F)n1)CCCC2`, the Potency was inconclusive: 2.82 µM [inhibitor, single point]. For `CCc1ccc(NS(=O)(=O)c2ccc3[nH]cc(C(=O)NCc4ccc(C)cc4)c(=O)c3c2)cc1`, the Potency was inconclusive: 35.5 µM [inhibitor, single point]. For `Cc1nnc(NC(=O)CSc2nccn2-c2cccc(C)c2C)s1`, the Potency was inconclusive: 35.5 µM [inhibitor, partial curve, poor fit]. For `Cc1ccccc1CN(c1ccc(C(=O)Nc2ccccc2C(=O)NCc2ccco2)cc1)S(C)(=O)=O`, the Potency was “inactive”. With `CCOc1ccc(CC2NCCc3cc(OCC)c(OCC)cc32)cc1OCC` (centres undefined) the Potency was inconclusive: 35.5 µM [inhibitor, single point]. With `CCOc1ccc(-n2c(=O)c3c4c(sc3n(Cc3cccc(C)c3)c2=O)CCCC4)cc1` the Potency was “inactive”. In the case of `CC(C)NC(=S)N/N=C/c1cccs1`, the Potency is reported as inconclusive: 3.98 µM [inhibitor, full curve, poor fit]. For `CCc1nc2c(OCc3ccc(Cl)cc3Cl)cccn2c1N(C)C(=O)C(C)C`, the Potency was active: 12.6 µM. For `Cc1nn(CCCC(=O)Nc2cc(C(F)(F)F)ccc2Cl)c(=O)c2c1sc1ccccc12`, the Potency was “inactive”. With `Cc1cc(C)cc(N(C(=O)c2ccco2)C(C(=O)NC2CCCC2)c2ccncc2)c1` (centres undefined) the Potency was “inactive”. With `CCc1nn(CC(=O)N(CC)Cc2ccccc2)c(=O)c2cc3occc3n12` the Potency was inconclusive: 0.251 µM [inhibitor, full curve, poor fit]. With `Cc1cc(NC(=O)CCC(=O)N(c2ccccc2)C(C(=O)NC2CCCC2)c2ccc(F)cc2)no1` (centres undefined) the Potency was “inactive”. For `Cc1ccc(C(C(=O)NC(C)(C)C)N(Cc2ccc3c(c2)OCO3)C(=O)c2ccc(CN3CCOCC3)o2)o1` (centres undefined), the Potency was inconclusive: 35.5 µM [inhibitor, single point].
Potency is read from the fitted curve at half-maximal effect; tags tell the direction and shape of the fitted curve.
